# The supplement of paper PMC9588766
# Counter-ions that a name gives are not always drawn. ± gives the standard deviation of the averaged measurements. In all, about 2,000 compounds were measured (“cell viability relative to DMSO control (compound alone)”: median about 0.98, lowest 2% from about 0.23 on). The list shows a part of the results.
# Test system: PDC-DUC18828
# Assay: cell viability relative to DMSO control (compound alone) (fraction); PDC-DUC18828 is a patient-derived cholangiocarcinoma cell line; higher = less growth inhibition
# Settings: 1 µM; 72 h
# Protocol: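 Selleck Bioactive library screen in the patient-derived FGFR2-G3BP2 fusion-positive ICC cell line PDC-DUC18828 (500 cells/well). Each compound was tested at 1 uM alone, in triplicate, for 72 h. Viability was read by CellTiter-Glo and normalised to plate DMSO controls.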
row,Compound,cell viability
1,CNCC[C@H](Oc1cccc2ccccc12)c1cccs1 [Duloxetine HCl],1.12 ± 0.028
2,C[C@@H](Oc1cc(-n2cnc3ccc(CN4CCN(C)CC4)cc32)sc1C(N)=O)c1ccccc1C(F)(F)F,0.325 ± 0.015
3,CC1(COc2ccc3c(c2)ncn3-c2ccc3cccc(N4CCC(N)CC4)c3n2)COC1,1.09 ± 0.064
4,COc1ccccc1-c1cc(Nc2cccc(CS(N)(=O)=O)c2)ncn1,1 ± 0.031
5,COc1ccc([C@H]2CNC(=O)C2)cc1OC1CCCC1 [S- (+)-Rolipram],1.08 ± 0.04
6,COc1cc(Cc2cnc(N)nc2N)cc(OC)c1OC [Trimethoprim],1.04 ± 0.07
7,COc1cc2c(cc1OC)CN(CCc1ccc(NC(=O)c3cc(OC)c(OC)cc3NC(=O)c3cnc4ccccc4c3)cc1)CC2 [Tariquidar],1.08 ± 0.062
8,CC(=O)c1cc([N+](=O)[O-])c(Sc2cccc(Cl)c2Cl)s1,1.08 ± 0.025
9,CS(=O)(=O)c1ccc(C2=C(c3ccccc3)C(=O)OC2)cc1 [Rofecoxib],0.934 ± 0.056
10,Cn1c(=O)c2[nH]cnc2n(C)c1=O [Aminophylline],1.03 ± 0.028
11,Cc1[nH]c(=O)c(C#N)cc1-c1ccncc1 [Milrinone],1.06 ± 0.033
12,CC(C)[C@H](CO)Nc1nc(Nc2cccc(Cl)c2)c2ncn(C(C)C)c2n1 [Purvalanol A],0.936 ± 0.023
13,Cc1ccnc2c1NC(=O)c1cccnc1N2C1CC1 [Nevirapine],1.05 ± 0.012
14,CN(C)CCC=C1c2ccccc2CCc2ccccc21 [Amitriptyline HCl],0.934 ± 0.056
15,FC(F)(F)c1ccc(CNc2ccc(Cc3c[nH]c4ncc(Cl)cc34)cn2)cn1 [Pexidartinib (PLX3397)],0.951 ± 0.035
16,O=C(Nc1ccccc1)c1ccccc1O [Salicylanilide],1.08 ± 0.045
17,COc1cc(/C=C/C(=O)N2CCC=CC2=O)cc(OC)c1OC [Piperlongumine],0.834 ± 0.028
18,Cc1cccc(C)c1NC(=O)C1CCCCN1C (stereo not given) [Mepivacaine HCl],1.02 ± 0.019
19,CCc1nc(-c2cccc(C)c2)c(-c2ccnc(NC(=O)c3ccccc3)c2)s1,0.946 ± 0.029
20,Cc1ncc([N+](=O)[O-])n1CC(O)CCl (stereo not given) [Ornidazole],0.979 ± 0.042

row,Compound,cell viability
1,CN1C(C(=O)Nc2ccccn2)=C(O)c2sccc2S1(=O)=O [Tenoxicam],0.944 ± 0.026
2,N=C(N)N [Guanidine HCl],1.02 ± 0.022
3,Cc1c(C(N)=O)cc([N+](=O)[O-])cc1[N+](=O)[O-] [Dinitolmide],1.03 ± 0.06
4,NS(=O)(=O)c1cc(C(=O)O)c(NCc2ccco2)cc1Cl [Furosemide],1.04 ± 0.027
5,O=C(O)c1cc(=O)c2ccccc2o1 [Chromocarb],0.918 ± 0.028
6,CCOc1cc([C@@H](CS(C)(=O)=O)N2C(=O)c3cccc(NC(C)=O)c3C2=O)ccc1OC,1 ± 0.016
7,COc1cc(C(=O)NS(=O)(=O)c2ccccc2C)ccc1Cc1cn(C)c2ccc(NC(=O)OC3CCCC3)cc12 [Zafirlukast],1.05 ± 0.028
8,CN[C@H]1CN(c2ccc3c(=O)c(C(=O)O)cn(-c4nccs4)c3n2)C[C@@H]1OC [Voreloxin (SNS-595)],0.735 ± 0.011
9,CC1=C(C(=O)OC(C)C)C(c2cccc([N+](=O)[O-])c2)C(C(=O)OC2CN(C(c3ccccc3)c3ccccc3)C2)=C(N)N1 (stereo not given) [Azelnidipine],0.978 ± 0.034
10,Cc1cc(C2CCCCC2)n(O)c(=O)c1 [Ciclopirox ethanolamine],0.587 ± 0.046
11,Cc1cc(C2CCCCC2)n(O)c(=O)c1 [Ciclopirox],0.7 ± 0.0091
12,CCc1cncnc1N1CCN(Cc2nc3ccc(C(F)(F)F)cc3[nH]2)CC1,0.959 ± 0.015
13,NCC(=O)Nc1ccc(-n2nc(C(F)(F)F)cc2-c2ccc3c(ccc4ccccc43)c2)cc1,0.966 ± 0.037
14,COc1ccc(-c2nc3cc(C4=NNC(=O)CC4C)ccc3[nH]2)cc1 (stereo not given) [Pimobendan],1.01 ± 0.031
15,CNS(=O)(=O)Cc1ccc2[nH]cc(CCN(C)C)c2c1 [Sumatriptan Succinate],1.01 ± 0.0021
16,O=C(COc1ccc(Cl)cc1)NC1CCC(NC(=O)COc2ccc(Cl)cc2)CC1 (stereo not drawn) [ISRIB (trans-isomer)],1.11 ± 0.02
17,COc1cc2ncnc(Oc3cccc(NC(=O)Nc4cc(C(C)(C)C(F)(F)F)on4)c3)c2cc1OC,1.06 ± 0.064
18,O=c1c(O)c(-c2ccc(O)c(O)c2)oc2cc(O)ccc12 [Fisetin],0.994 ± 0.044
19,NS(=O)(=O)c1cc2c(cc1Cl)N=CNS2(=O)=O [Chlorothiazide],0.962 ± 0.014
20,COc1ccc(-c2cnc3c(-c4cccc5ncccc45)cnn3c2)cc1,0.8803 ± 0.008
